# Values joined by “and” are separate entries in the source; they are usually repeats but may differ in a detail not shown here. Identical values can stand only once. The shares of active, inactive and inconclusive entries below differ from those in the screen. Potencies of inconclusive entries are doubtful fits and often do not repeat. Some compounds were tested as several samples or in several runs, with calls that do not always agree. Active and inactive are the calls of the source. Unless noted, the call rests on the fitted dose curve; in most records, active means well fitted curve in the direction sought with a large enough effect in the repeat runs; inconclusive means weak or mixed curves; inactive means no such curve, though single readings can be large; an effect the other way counts as inactive or inconclusive.
# How the values were obtained:
# [1] = qHTS assay to identify small molecule antagonists of the retinoid acid receptor (RAR) signaling pathway - cell viability counter screen (AID 1159551); further: nearly all actives have a fitted effect of over 35% in size
# Summary of the method: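 ATP-based viability, C3RL4 cells, 6 h at 37 C with 1 uM final retinol co-added after compound; luminescence read 30 min post CellTiter-Glo, RT.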
# [2] = qHTS assay to identify small molecule antagonists of the estrogen related receptor (ERR) signaling pathway from Tox21 library - cell viability counter screen (AID 1224834); further: nearly all actives have a fitted effect of over 30% in size
# Summary of the method: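 Compounds in DMSO were pinned onto ERR cells that had been incubated for 6 h, and the plates were held at 37 C for 17.5 h. CellTiter-Fluor reagent was then added and fluorescence was measured after 30 min.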
# [3] = qHTS assay to identify small molecule antagonists of the constitutive androstane receptor (CAR) signaling pathway - cell viability counter screen (AID 1224837); further: nearly all actives have a fitted effect of over 45% in size
# Summary of the method: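 Cells are seeded, rested 4 hr at 37 C/5% CO2, dosed with compound (15-point series) and 50 nM CITCO, incubated a further 23 hr, and then CellTiter-Fluor reagent is added before fluorescence is read. The line is HepG2 with stable hCAR and CYP2B6-2.2kb.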
# [4] = qHTS assay to identify small molecule antagonists of the estrogen related receptor signaling pathway with the pleiotropic PPARgamma coactivator (PGC) from Tox21 10K library - cell viability counter screen (AID 1224840; active means well fitted cell-killing curve with a large enough effect in the repeat runs, not every such curve was filed as active; inconclusive means weak or mixed curves, or effect the other way; inactive means no such curve, though single readings can be large or run the other way; further: nearly all actives have a fitted effect of over 40% in size)
# Summary of the method: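 Cell viability is measured by CellTiter-Fluor fluorescence in PGC/ERR cells that receive compounds after a 6-hour attachment period and are then incubated 17.5 hours at 37 C.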
# [5] = qHTS assay to identify small molecule agonists of the hypoxia (HIF-1) signaling pathway - cell viability counter screen (AID 1224844; calls by dose curve; further: nearly all actives have a fitted effect of over 50% in size)
# Summary of the method: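 Viability counter screen: HRE-bla ME-180 cells plated 5 hrs before compound addition, treated 17 hrs at 37C and 5% CO2, then CellTiter-Glo added after the FRET reporter read; luminescence after 30 min.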
# [6] = biological target: Nuclear receptor subfamily 1 group I member 3 (Homo sapiens) (UniProt Q14994); assay: qHTS assay to identify small molecule antagonists of the constitutive androstane receptor (CAR) signaling pathway (AID 1224838);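 further: HepG2 cells stably expressing hCAR with CYP2B6 luciferase reporter stimulated by CITCO; nearly all actives have a fitted effect of over 40% in size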
# Chain of UniProt Q14994 (Q14994 whole entry, looked up): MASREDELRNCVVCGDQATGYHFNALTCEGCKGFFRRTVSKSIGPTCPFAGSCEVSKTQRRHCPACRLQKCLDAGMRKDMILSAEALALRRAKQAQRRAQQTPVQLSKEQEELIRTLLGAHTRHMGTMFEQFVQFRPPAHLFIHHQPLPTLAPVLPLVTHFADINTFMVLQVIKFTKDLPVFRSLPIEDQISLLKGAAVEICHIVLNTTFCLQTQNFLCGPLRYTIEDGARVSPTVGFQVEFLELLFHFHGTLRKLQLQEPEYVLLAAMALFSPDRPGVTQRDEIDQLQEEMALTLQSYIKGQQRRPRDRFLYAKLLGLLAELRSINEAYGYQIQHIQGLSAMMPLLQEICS
# Summary of the method: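 Luminescence from a CYP2B6-2.2kb promoter reporter in hCAR-expressing HepG2 cells reflects CAR signaling. Cells received compounds at 15 concentrations and 50 nM CITCO (final), then incubated 24 h at 37 C/5% CO2.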
# [7] = qHTS assay to identify small molecule agonists of the estrogen related receptor signaling pathway with the pleiotropic PPARgamma coactivator (PGC) from Tox21 10K library (AID 1224842); further: nearly all actives have a fitted effect of over 15% in size
# Summary of the method: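 Luminescence from One-Glo (30 min, room temperature) measured after PGC/ERR cells had 18 h at 37 C with pinned compound (23 nL in DMSO). Cells had been seeded at 2,000 per well and pre-incubated 6 h.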
# [8] = biological target: Thyrotropin receptor (Homo sapiens) (UniProt P16473); assay: qHTS assay to identify small molecule agonists of the thyroid stimulating hormone receptor (TSHR) signaling pathway (AID 1224843; calls by dose curve; further: nearly all actives have a fitted effect of over 45% in size; on activation: on the % scale 0 is the no-effect control and ±100 the full control effect); settings: TSHR-HEK293 cells, cAMP HTRF, agonist mode, 30 min; activation: at 92.4 µM (top of the series) unless noted
# Chain of UniProt P16473 (P16473 whole entry, looked up): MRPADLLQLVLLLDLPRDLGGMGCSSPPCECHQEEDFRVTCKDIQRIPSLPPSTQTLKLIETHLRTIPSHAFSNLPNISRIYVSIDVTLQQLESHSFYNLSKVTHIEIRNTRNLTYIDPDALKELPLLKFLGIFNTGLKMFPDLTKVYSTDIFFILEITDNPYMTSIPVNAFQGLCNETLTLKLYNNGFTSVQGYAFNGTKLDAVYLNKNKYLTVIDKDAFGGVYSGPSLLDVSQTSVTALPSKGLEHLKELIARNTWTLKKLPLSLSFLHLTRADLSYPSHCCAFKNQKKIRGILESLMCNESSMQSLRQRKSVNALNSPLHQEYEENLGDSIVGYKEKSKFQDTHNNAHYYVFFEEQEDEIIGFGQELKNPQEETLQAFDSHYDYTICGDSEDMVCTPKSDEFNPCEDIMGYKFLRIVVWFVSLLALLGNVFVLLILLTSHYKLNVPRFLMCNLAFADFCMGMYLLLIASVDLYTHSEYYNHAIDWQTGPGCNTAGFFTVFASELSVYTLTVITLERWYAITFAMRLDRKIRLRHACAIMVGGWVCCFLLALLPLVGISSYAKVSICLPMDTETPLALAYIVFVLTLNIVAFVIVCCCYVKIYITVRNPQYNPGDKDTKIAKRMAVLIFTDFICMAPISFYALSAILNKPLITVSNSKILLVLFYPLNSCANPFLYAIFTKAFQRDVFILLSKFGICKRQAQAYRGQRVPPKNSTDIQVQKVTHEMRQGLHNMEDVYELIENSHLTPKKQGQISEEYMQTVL
# Summary of the method: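 Agonist activity read as cAMP rise via d2/cryptate HTRF competition, 1 h room-temperature detection, in HEK293 cells expressing TSHR. Fifteen-point titrations, each run in triplicate, with a 30 min room-temperature incubation beforehand.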
# [9] = biological target: Luciferin 4-monooxygenase (Photinus pyralis) (UniProt P08659); assay: qHTS assay to identify small molecule inhibitors of firefly luciferase (AID 1224835); further: nearly all actives have a fitted effect of over 25% in size
# Chain of UniProt P08659 (P08659 whole entry, looked up): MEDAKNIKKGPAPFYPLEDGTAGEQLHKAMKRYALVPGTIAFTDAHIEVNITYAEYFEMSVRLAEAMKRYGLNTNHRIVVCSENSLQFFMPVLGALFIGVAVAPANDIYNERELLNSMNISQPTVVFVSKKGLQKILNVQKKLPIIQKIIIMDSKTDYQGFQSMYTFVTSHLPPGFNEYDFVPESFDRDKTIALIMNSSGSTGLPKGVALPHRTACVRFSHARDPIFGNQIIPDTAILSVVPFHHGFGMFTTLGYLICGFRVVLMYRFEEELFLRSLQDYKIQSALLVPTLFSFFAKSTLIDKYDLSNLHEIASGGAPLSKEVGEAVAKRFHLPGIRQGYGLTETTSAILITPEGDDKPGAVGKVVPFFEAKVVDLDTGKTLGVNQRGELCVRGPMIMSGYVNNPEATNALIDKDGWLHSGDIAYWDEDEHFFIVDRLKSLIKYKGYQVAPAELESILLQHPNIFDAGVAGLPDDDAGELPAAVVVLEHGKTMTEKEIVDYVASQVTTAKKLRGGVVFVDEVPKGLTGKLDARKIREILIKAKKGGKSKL
# Summary of the method: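 Inhibition of purified Photinus luciferase is measured by luminescence. Substrate levels (D-luciferin, ATP) sit at their KM values. Each compound is tested in a concentration series.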
# [10] = qHTS assay to identify small molecule agonists of the constitutive androstane receptor (CAR) signaling pathway - cell viability counter screen (AID 1224836); further: nearly all actives have a fitted effect of over 45% in size
# Summary of the method: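 Cells were seeded and incubated 4 hrs. Compounds were added across 15 concentrations together with PK11195 at 0.75 uM final. Plates were incubated 23 hrs at 37 C. CellTiter-Fluor was added and fluorescence measured.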
# [11] = qHTS assay to identify small molecule antagonists of the estrogen related receptor signaling pathway with the pleiotropic PPARgamma coactivator (PGC) from Tox21 10K library (AID 1224841; call rule not given here; further: actives are mostly falling curves and most rising ones were filed inactive; nearly all actives have a fitted effect of over 50% in size)
# Summary of the method: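 Cells stably carrying the PGC/ERR reporter, seeded at 2,000 per well, received pin-transferred compounds 6 h post-plating. Exposure lasted 18 h at 37 C. Signal: One-Glo luminescence.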
# [12] = biological target: Nuclear receptor subfamily 1 group I member 3 (Homo sapiens) (UniProt Q14994); assay: qHTS assay to identify small molecule agonists of the constitutive androstane receptor (CAR) signaling pathway (AID 1224839); further: nearly all actives have a fitted effect of over 15% in size
# Summary of the method: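 Cells were plated and incubated 4 hrs, then dosed with compounds at 15 concentrations. PK11195 was added to 0.75 uM final. After 24 hrs at 37 C, luciferase luminescence was measured.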
# [13] = qHTS assay to identify small molecule antagonists of the retinoic acid receptor (RAR) signaling pathway (AID 1159552; further: nearly all actives have a fitted effect of over 50% in size)
# Summary of the method: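 Retinol at 1 uM final stimulated RARE-luciferase expression in C3RL4 cells exposed to test compounds for 6 hr at 37 C. Reduced luminescence, read 30 min after detection reagent, indicated pathway antagonism.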
# Potency means the concentration at half of the fitted maximal effect; tags describe the fitted curve by direction and shape or compound fluorescence and quenching.
compound,measurement,setting,value
NC(=O)c1nc(-c2cccc(-c3cc(F)ccc3OCC(F)(F)C(F)(F)F)c2)n[nH]1,Potency,[1],"inconclusive: 68.6 µM [cytotoxic, single point]"
same,Potency,[2],"inconclusive: 54.5 µM [cytotoxic, partial curve]"
same,Potency,[3],"inconclusive: 61.1 µM [cytotoxic, partial curve]"
same,Potency,[4],"inconclusive: 61.1 µM [cytotoxic, partial curve]"
same,Potency,[5],inconclusive: 61.6 µM [cytotoxic]
NC(N)=Nc1nc(CSCC/C(N)=N/S(N)(=O)=O)cs1,Potency,[1],"inconclusive: 77 µM [rising, partial curve, poor fit]"
same,Potency,[3],"inconclusive: 48.6 µM [cytotoxic, partial curve]"
O=CC(=O)c1ccccc1,Potency,[1],"inconclusive: 43.3 µM [rising, partial curve, poor fit]"
same,Potency,[6],active: 68.7 µM
same,Potency,[7],inconclusive: 68.7 µM [activator]
same,Potency,[8],active: 27.3 µM
CC1COC(=O)O1 (stereo not drawn),Potency,[1],inactive
same,Potency,[9],inactive
CS(=O)(=O)c1ccc(-c2cn3ccccc3n2)cc1,Potency,[1],active: 11.9 µM
same,Potency,[9],"inconclusive: 7.76 µM [inhibitor, full curve, poor fit]"
same,Potency,[3],"inconclusive: 33.5 µM [rising, single point]"
same,Potency,[7],"inconclusive: 13.3 µM [activator, partial curve, poor fit]"
same,Potency,[5],active: 23.9 µM
Cc1cc(=O)c2c(O)c3c(O)cc(=O)c4c3c3c(cc(O)c1c23)C(C)(C)C=4O,Potency,[1],"inconclusive: 1.64 µM [cytotoxic, partial curve, poor fit]"
same,Potency,[10],"inconclusive: 2.59 µM [cytotoxic, full curve]"
same,Potency,[3],"inconclusive: 2.59 µM [cytotoxic, full curve]"
same,Potency,[4],"inconclusive: 1.16 µM [cytotoxic, full curve]"
Brc1cc2ccccc2c2ccccc12,Potency,[1],"inconclusive: 69.1 µM [cytotoxic, single point]"
same,Potency,[10],"inconclusive: 48.9 µM [cytotoxic, partial curve]"
same,Potency,[3],"inconclusive: 69.1 µM [cytotoxic, single point]"
same,Potency,[6],"inconclusive: 69.1 µM [inhibitor, single point]"
same,Potency,[4],"inconclusive: 69.1 µM [cytotoxic, single point]"
same,Potency,[11],active: 61.6 µM
same,activation,[8],inconclusive: 4.68%
same,Potency,[5],active: 44 µM
Cc1cc(=O)oc2cc(O)ccc12,Potency,[1],"inconclusive: 24.3 µM [rising, partial curve, poor fit]"
same,Potency,[10],inconclusive: 61.1 µM
same,Potency,[3],inconclusive: 61.1 µM
same,Potency,[12],"inconclusive: 68.6 µM [activator, partial curve, poor fit]"
CCCCCCCCCCCCSC#N,Potency,[13],"inconclusive: 24.3 µM [inhibitor, partial curve]"
CN(C/C=C/c1ccccc1)Cc1cccc2ccccc12,Potency,[1],active: 26.6 µM
same,Potency,[3],"inconclusive: 33.5 µM [rising, single point]"
CCCCCCC/C=C/C=O,Potency,[13],"inconclusive: 61.1 µM [inhibitor, partial curve, poor fit]"
CCCCOCCOC(=O)c1ccccc1C(=O)OCCOCCCC,Potency,[1],inactive
same,Potency,[8],"inconclusive: 15 µM [inhibitor, full curve]"
same,Potency,[5],"inconclusive: 53.8 µM [cytotoxic, single point]"
CCCOc1ccc2nc(NC(=O)OC)[nH]c2c1,Potency,[1],"inconclusive: 0.0298 µM [cytotoxic, partial curve, poor fit]"
same,Potency,[2],"inconclusive: 0.237 µM [cytotoxic, full curve]"
same,Potency,[6],"inconclusive: 3.76 µM [inhibitor, full curve]"
same,Potency,[5],"inconclusive: 0.301 µM [rising, full curve]"
Oc1ccc(-c2ccc(O)cc2)cc1,Potency,[1],"inconclusive: 30.8 µM [rising, partial curve, poor fit]"
same,Potency,[2],"inconclusive: 30.8 µM [cytotoxic, partial curve]"
same,Potency,[12],active: 17.3 µM
same,Potency,[8],inactive
O=C(O)Cc1ccccc1Oc1ccc(Cl)cc1Cl,Potency,[13],inactive
COc1c(N2C[C@@H]3CCCN[C@@H]3C2)c(F)cc2c(=O)c(C(=O)O)cn(C3CC3)c12,Potency,[13],inactive
CCCCCCCC[P+](CCCCCCCC)(CCCCCCCC)CCCCCCCC,Potency,[1],active: 54.2 µM
same,Potency,[4],active: 10.8 µM
O=[N+]([O-])c1cc(N(CCO)CCO)ccc1NCCO,Potency,[1],active: 48.5 µM and active: 48.6 µM
same,Potency,[2],inconclusive: 61.1 µM [cytotoxic]
same,Potency,[10],"inconclusive: 54.4 µM [cytotoxic, partial curve] and inconclusive: 54.5 µM [cytotoxic, partial curve, poor fit]"
same,Potency,[4],"inconclusive: 54.4 µM [cytotoxic, partial curve]"
N=C1N=C(N)c2ccccc21,Potency,[1],"inconclusive: 19.3 µM [rising, full curve, poor fit]"
same,Potency,[6],active: 17.2 µM
same,Potency,[4],"inconclusive: 48.6 µM [cytotoxic, partial curve]"
same,Potency,[5],active: 21.9 µM
CCCCCCOC(C)=O,Potency,[1],inactive
same,Potency,[9],inactive
same,Potency,[5],active: 27.5 µM
S=C1NC=NC2N=CNC12 (stereo not drawn),Potency,[1],"inconclusive: 54.5 µM [cytotoxic, partial curve]"
same,Potency,[3],"inconclusive: 5.45 µM [cytotoxic, full curve]"
NNC(=O)CP(=O)(c1ccccc1)c1ccccc1,Potency,[1],inactive
same,Potency,[3],inactive
same,Potency,[4],inactive
CCC(C)c1cc([N+](=O)[O-])cc([N+](=O)[O-])c1OC(=O)OC(C)C (stereo not drawn),Potency,[1],"inconclusive: 68.6 µM [cytotoxic, single point]"
same,Potency,[2],active: 24.3 µM
same,Potency,[3],active: 61.1 µM
same,Potency,[6],"inconclusive: 68.6 µM [inhibitor, single point]"
same,Potency,[12],"inconclusive: 27.3 µM [activator, partial curve, poor fit]"
same,Potency,[4],active: 43.3 µM
same,Potency,[5],"inconclusive: 61.6 µM [cytotoxic, single point]"
CCCCC1C(=O)N(c2ccccc2)N(c2ccc(O)cc2)C1=O (stereo not drawn),Potency,[1],"inconclusive: 33.5 µM [rising, single point]"
same,Potency,[2],active: 18.8 µM
same,Potency,[3],"inconclusive: 29.8 µM [cytotoxic, single point]"
same,Potency,[6],active: 29.8 µM
same,Potency,[4],"inconclusive: 18.8 µM [cytotoxic, partial curve]"
same,Potency,[11],"inconclusive: 33.5 µM [falling, single point]"
same,Potency,[5],inconclusive: 26.8 µM [single point]
CC(=O)C1=C(C)[C@@H]2C[C@@]3(C1)[C@H](C)CC[C@H]3C2(C)C,Potency,[1],inactive
same,Potency,[10],inactive
O=C1OC2(c3cc(Br)c(O)c(Br)c3Oc3c2cc(Br)c(O)c3Br)c2c(Cl)c(Cl)c(Cl)c(Cl)c21,Potency,[1],active: 4.33 µM and inconclusive: 16.6 µM [cytotoxic]
same,Potency,[10],active: 13.7 µM and active: 37.1 µM
same,Potency,[6],inconclusive: 13.7 µM [inhibitor]
same,Potency,[11],"inconclusive: 37.1 µM [falling, partial curve]"
same,Potency,[8],inconclusive: 68.7 µM and inactive
CCCCOC(=O)C(C)O (stereo not drawn),Potency,[13],inactive
CC(=O)Nc1cc(S(=O)(=O)O)cc2cc(S(=O)(=O)O)c(N=Nc3ccccc3)c(O)c12,Potency,[1],active: 24.3 µM
same,Potency,[9],"inconclusive: 71 µM [inhibitor, partial curve]"
same,Potency,[4],active: 27.3 µM
same,Potency,[11],"inconclusive: 27.3 µM [falling, partial curve]"
same,Potency,[8],inconclusive: 68.6 µM
C=CC(=O)OCCn1c(=O)n(CCOC(=O)C=C)c(=O)n(CCOC(=O)C=C)c1=O,Potency,[1],inconclusive: 19.3 µM
same,Potency,[10],active: 48.6 µM
same,Potency,[3],active: 19.3 µM
same,Potency,[11],active: 15.4 µM
same,Potency,[8],active: 27.3 µM
same,Potency,[5],active: 12.3 µM
O=C(CCN1CCC(c2ccccc2)C1)c1ccc2c(c1)OCCO2 (stereo not drawn),Potency,[1],inactive
same,Potency,[3],inactive
same,Potency,[5],"inconclusive: 26.8 µM [cytotoxic, single point]"
O=C(CCS)OCC(COC(=O)CCS)(COC(=O)CCS)COC(=O)CCS,Potency,[1],"inconclusive: 77 µM [rising, single point]"
same,Potency,[2],inactive
same,Potency,[5],inconclusive: 49 µM [cytotoxic]
CCCCCCc1ccc(O)cc1O,Potency,[1],"inconclusive: 61.3 µM [cytotoxic, partial curve, poor fit]"
same,Potency,[10],inconclusive: 68.6 µM [cytotoxic]
same,Potency,[3],inconclusive: 68.6 µM [cytotoxic]
same,Potency,[4],"inconclusive: 61.1 µM [cytotoxic, partial curve]"
same,Potency,[5],"inconclusive: 55.1 µM [cytotoxic, single point] and inconclusive: 54.9 µM [cytotoxic, single point]"
CC(C)n1nc(-c2cc3cc(O)ccc3[nH]2)c2c(N)ncnc21,Potency,[1],"inconclusive: 6.68 µM [cytotoxic, full curve]"
same,Potency,[2],active: 1.33 µM
same,Potency,[3],"inconclusive: 0.335 µM [cytotoxic, full curve]"
same,Potency,[4],"inconclusive: 0.473 µM [cytotoxic, full curve, poor fit]"
same,Potency,[8],inconclusive: 11.9 µM [activator]
Oc1ccc2ccccc2c1N=Nc1ccccc1,Potency,[1],"inconclusive: 21.7 µM [cytotoxic, partial curve, poor fit]"
same,Potency,[3],"inconclusive: 27.3 µM [cytotoxic, partial curve]"
same,Potency,[12],active: 30.6 µM and active: 21.7 µM
same,Potency,[4],"inconclusive: 24.3 µM [cytotoxic, partial curve] and inconclusive: 15.4 µM [cytotoxic, partial curve]"
same,activation,[8],inconclusive: -5.86%
